From the supplement of paper PMC7125110
± gives the standard error. This sample is rich in variants without activity.

B1: glmS ribozyme (parent)
chain: AUAAAAGCGCCAGAACUACAGAAAUGUAGUUGACGAGGAGGAGGUUUAUCGAAUUUUCGGCGGAUGCCUCCAAA

How the values were obtained:
Conditions in all cases: with glucosamine-6-phosphate
glucosamine-6-phosphate [1] = variants of: B1; assay: self-cleavage kobs at 640 uM GlcN6P; higher = faster cleavage; RNA array
Outline: (§1)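 kobs was derived by fitting per-tile medians to one- or two-exponential decays after normalising signals to baseline and to non-cleaving reference variants. Those signals came from barcoded ribozyme variants transcribed in situ by E. coli RNA polymerase on sequenced MiSeq chips, followed through a hybridised Cy3 probe at 37 °C and imaged over ~14 h. Glucosamine-6-phosphate (40 μM to 10 mM) in HEPES/KCl/Mg(OAc)2 buffer was flowed in. Weighted Michaelis–Menten fits across concentrations then gave kcat and KM.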

glucosamine-6-phosphate [2] = variants of: B1; assay: self-cleavage kobs at 2500 uM GlcN6P; higher = faster cleavage; RNA array
Outline: as §1

glucosamine-6-phosphate [3] = variants of: B1; assay: self-cleavage kobs at 10000 uM GlcN6P; higher = faster cleavage; RNA array
Outline: as §1

glucosamine-6-phosphate [4] = variants of: B1; assay: self-cleavage kobs at 160 uM GlcN6P; higher = faster cleavage; RNA array
Outline: as §1

C8G G13C A14U A42U G51C C61U U69G
self-cleavage kobs at 640 uM GlcN6P (glucosamine-6-phosphate [1]): < 1e-05 s⁻¹ | self-cleavage kobs at 2500 uM GlcN6P (glucosamine-6-phosphate [2]): < 1e-05 s⁻¹ | self-cleavage kobs at 10000 uM GlcN6P (glucosamine-6-phosphate [3]): < 1e-05 s⁻¹

G9U U56C
self-cleavage kobs at 640 uM GlcN6P (glucosamine-6-phosphate [1]): < 1e-05 s⁻¹ | self-cleavage kobs at 160 uM GlcN6P (glucosamine-6-phosphate [4]): < 1e-05 s⁻¹ | self-cleavage kobs at 2500 uM GlcN6P (glucosamine-6-phosphate [2]): < 1e-05 s⁻¹ | self-cleavage kobs at 10000 uM GlcN6P (glucosamine-6-phosphate [3]): < 1e-05 s⁻¹

C8A G32A A39U U69G
self-cleavage kobs at 640 uM GlcN6P (glucosamine-6-phosphate [1]): < 1e-05 s⁻¹

C10A C11G G37U A39G A53U G60A
self-cleavage kobs at 640 uM GlcN6P (glucosamine-6-phosphate [1]): < 1e-05 s⁻¹ | self-cleavage kobs at 2500 uM GlcN6P (glucosamine-6-phosphate [2]): < 1e-05 s⁻¹

C11A G62U
self-cleavage kobs at 640 uM GlcN6P (glucosamine-6-phosphate [1]): < 1e-05 s⁻¹ | self-cleavage kobs at 160 uM GlcN6P (glucosamine-6-phosphate [4]): < 1e-05 s⁻¹

C8A U31C A39U A53G G62U C67U
self-cleavage kobs at 640 uM GlcN6P (glucosamine-6-phosphate [1]): < 1e-05 s⁻¹ | self-cleavage kobs at 2500 uM GlcN6P (glucosamine-6-phosphate [2]): < 1e-05 s⁻¹

C8U G9A G21U A36G U57C
self-cleavage kobs at 640 uM GlcN6P (glucosamine-6-phosphate [1]): < 1e-05 s⁻¹

G9U U45A
self-cleavage kobs at 640 uM GlcN6P (glucosamine-6-phosphate [1]): < 1e-05 s⁻¹ | self-cleavage kobs at 160 uM GlcN6P (glucosamine-6-phosphate [4]): < 1e-05 s⁻¹

C10A C16A U47C U65C
self-cleavage kobs at 640 uM GlcN6P (glucosamine-6-phosphate [1]): < 1e-05 s⁻¹ | self-cleavage kobs at 160 uM GlcN6P (glucosamine-6-phosphate [4]): < 1e-05 s⁻¹

C8G G32A C58U
self-cleavage kobs at 640 uM GlcN6P (glucosamine-6-phosphate [1]): < 1e-05 s⁻¹ | self-cleavage kobs at 2500 uM GlcN6P (glucosamine-6-phosphate [2]): < 1e-05 s⁻¹

G9C G29U G35U U47G U65G
self-cleavage kobs at 640 uM GlcN6P (glucosamine-6-phosphate [1]): < 1e-05 s⁻¹ | self-cleavage kobs at 2500 uM GlcN6P (glucosamine-6-phosphate [2]): < 1e-05 s⁻¹

C8G G9U A12U U30G A64C
self-cleavage kobs at 640 uM GlcN6P (glucosamine-6-phosphate [1]): < 1e-05 s⁻¹ | self-cleavage kobs at 160 uM GlcN6P (glucosamine-6-phosphate [4]): < 1e-05 s⁻¹

C10A C68G
self-cleavage kobs at 640 uM GlcN6P (glucosamine-6-phosphate [1]): 6.2e-05 ± 2.8e-05 s⁻¹ | self-cleavage kobs at 160 uM GlcN6P (glucosamine-6-phosphate [4]): 0.000416 ± 0.00019 s⁻¹ | self-cleavage kobs at 2500 uM GlcN6P (glucosamine-6-phosphate [2]): 6.4e-05 ± 1.8e-05 s⁻¹

C8A A42U U45C U65G
self-cleavage kobs at 640 uM GlcN6P (glucosamine-6-phosphate [1]): < 1e-05 s⁻¹ | self-cleavage kobs at 2500 uM GlcN6P (glucosamine-6-phosphate [2]): < 1e-05 s⁻¹

G7C U69A C70U
self-cleavage kobs at 640 uM GlcN6P (glucosamine-6-phosphate [1]): < 1e-05 s⁻¹

G7U C8G A42C C58U
self-cleavage kobs at 640 uM GlcN6P (glucosamine-6-phosphate [1]): < 1e-05 s⁻¹ | self-cleavage kobs at 2500 uM GlcN6P (glucosamine-6-phosphate [2]): < 1e-05 s⁻¹

G9U A33G A39C A42U G51A
self-cleavage kobs at 640 uM GlcN6P (glucosamine-6-phosphate [1]): < 1e-05 s⁻¹

G9C A53U G59U
self-cleavage kobs at 640 uM GlcN6P (glucosamine-6-phosphate [1]): < 1e-05 s⁻¹ | self-cleavage kobs at 2500 uM GlcN6P (glucosamine-6-phosphate [2]): < 1e-05 s⁻¹

G7C C34U G40C
self-cleavage kobs at 640 uM GlcN6P (glucosamine-6-phosphate [1]): < 1e-05 s⁻¹ | self-cleavage kobs at 2500 uM GlcN6P (glucosamine-6-phosphate [2]): < 1e-05 s⁻¹

G7U A36G U56C
self-cleavage kobs at 640 uM GlcN6P (glucosamine-6-phosphate [1]): < 1e-05 s⁻¹ | self-cleavage kobs at 160 uM GlcN6P (glucosamine-6-phosphate [4]): < 1e-05 s⁻¹

C10U G43C U47C
self-cleavage kobs at 640 uM GlcN6P (glucosamine-6-phosphate [1]): < 1e-05 s⁻¹

C8U G13U U31G A53C
self-cleavage kobs at 640 uM GlcN6P (glucosamine-6-phosphate [1]): < 1e-05 s⁻¹

G9A G38U C58G G60U
self-cleavage kobs at 640 uM GlcN6P (glucosamine-6-phosphate [1]): < 1e-05 s⁻¹ | self-cleavage kobs at 2500 uM GlcN6P (glucosamine-6-phosphate [2]): < 1e-05 s⁻¹

G9C A39U
self-cleavage kobs at 640 uM GlcN6P (glucosamine-6-phosphate [1]): < 1e-05 s⁻¹ | self-cleavage kobs at 160 uM GlcN6P (glucosamine-6-phosphate [4]): < 1e-05 s⁻¹ | self-cleavage kobs at 2500 uM GlcN6P (glucosamine-6-phosphate [2]): < 1e-05 s⁻¹ | self-cleavage kobs at 10000 uM GlcN6P (glucosamine-6-phosphate [3]): < 1e-05 s⁻¹

C10G U30A G32A U47A
self-cleavage kobs at 640 uM GlcN6P (glucosamine-6-phosphate [1]): < 1e-05 s⁻¹ | self-cleavage kobs at 2500 uM GlcN6P (glucosamine-6-phosphate [2]): < 1e-05 s⁻¹

C11A G29U A42C
self-cleavage kobs at 640 uM GlcN6P (glucosamine-6-phosphate [1]): < 1e-05 s⁻¹ | self-cleavage kobs at 160 uM GlcN6P (glucosamine-6-phosphate [4]): < 1e-05 s⁻¹ | self-cleavage kobs at 2500 uM GlcN6P (glucosamine-6-phosphate [2]): < 1e-05 s⁻¹

G7U G29U U46C
self-cleavage kobs at 640 uM GlcN6P (glucosamine-6-phosphate [1]): < 1e-05 s⁻¹ | self-cleavage kobs at 2500 uM GlcN6P (glucosamine-6-phosphate [2]): < 1e-05 s⁻¹ | self-cleavage kobs at 10000 uM GlcN6P (glucosamine-6-phosphate [3]): < 1e-05 s⁻¹

G7C C58G
self-cleavage kobs at 640 uM GlcN6P (glucosamine-6-phosphate [1]): < 1e-05 s⁻¹
